# Where “and” joins values, the source holds several entries; their conditions need not be identical. Equal entries are not always repeated. The campaign covered roughly 420,000 compounds. About 64,000 (15%) were called active. This list was built around the results that the source calls inconclusive (neither active nor inactive); the mix of calls is not that of the screen. The call rests on the fitted dose curve; in most records, active means well fitted inhibition curve with a large enough effect; inconclusive means small, poorly fitted or top-dose-only effect; inactive means flat fitted curve, though single readings scatter. Potencies of inconclusive entries are doubtful fits and often do not repeat.
# Assay: qHTS for Inhibitors of human tyrosyl-DNA phosphodiesterase 1 (TDP1): qHTS in cells in absence of CPT; further: nearly all actives have a fitted effect of over 55% in size
# Details: DT40 Tdp1-/- hTDP1 cells, no CPT, ATP luminescence, 48 h; activity change, negative = growth inhibition: at 46.2 µM (top of the series) unless noted
# In short: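 Chicken DT40 Tdp1-/- cells complemented with human TDP1, screened without camptothecin (DMSO vehicle only), 400 cells/well. Compounds pin-transferred, cells incubated at 37 °C for at least 48 hr. Growth read as ATP-dependent luminescence (CellTiter-Glo, 30 min at RT).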
# On the % scale 0 is the no-effect control and ±100 the full control effect; potency means the concentration at half of the fitted maximal effect; tags describe the fitted curve by direction and shape.
SMILES,Potency,"activity change, negative = growth inhibition"
CC(NC(=O)C1CCOCC1)c1nnc2n1CCN(Cc1ccc(F)cc1)CC2 (stereo not drawn),inactive,
COc1cc2c(cc1O)C(SC)=NC(C)(C)C2,active: 29.1 µM,
CCOC(=O)[C@]12Cc3c(cc(OC)c(OC)c3OC)[C@H]1N(CCC(=O)OC)C(=O)c1cc(OC)ccc12,active: 16.4 µM,
O=C1CCN(Cc2cccnc2)CCN1[C@H](CO)Cc1ccccc1,inactive,
CCc1ccc(NC(=O)c2cc(S(=O)(=O)N3CCCCCC3)ccc2F)cc1,active: 18.4 µM,
Cc1[nH]nc2c1C(c1ccc(Cl)cc1)C(C#N)=C(N)O2 (stereo not drawn),"inconclusive: 29.1 µM [inhibitor, single point]",
CCCN(C(=O)CSc1nc2cc(S(=O)(=O)N(CC)CC)ccc2o1)C1CCS(=O)(=O)C1 (stereo not drawn),inactive,
Cc1ccc(NC(=O)Nc2nnc(SCC(=O)Nc3ccc(F)cc3F)s2)cc1,inactive,
COc1ccc(S(=O)(=O)Cc2ccc(C(=O)NCc3cccnc3)o2)cc1,"inconclusive: 16.4 µM [inhibitor, single point]",
CCCCNC(=O)C[C@@H]1C[C@@]2(C(=O)OC)CC(C)(C)CC=C2N(Cc2ccccc2)C1=O,"inconclusive: 18.4 µM [inhibitor, single point]",
COc1ccc(NC(=O)CS(=O)CC(=O)Nc2ccc(OC)c(OC)c2)cc1 (stereo not drawn),,inconclusive: -26% [inhibitor]
C=CCn1c(CNc2ccccc2)nnc1SCC(=O)N/N=C/c1ccc(O)cc1O,"inconclusive: 16.4 µM [inhibitor, single point]",
CCCCN1CC(c2nc3ccccc3n2CCCCOc2ccc(C)cc2C)CC1=O (stereo not drawn),active: 5.8 µM,
COc1ccc(CNC(=O)N2CCN(c3cccc(Cl)c3)CC2)cc1OC,"inconclusive: 29.1 µM [inhibitor, single point]",
CCn1c(SCC(=O)c2cc(C)n(C)c2C)nnc1-c1ccccc1,"inconclusive: 23.1 µM [inhibitor, single point]",
O=C(CSc1nnc(CNC(=O)c2ccco2)o1)Nc1ccc(F)cc1F,inactive,
O=C(OCCN1CCCC1)C1(c2ccccc2)CCCC1,inactive,
CCC/C(C#Cc1ccsc1)=C1/c2ccccc2C(=O)N1c1ccccc1,"inconclusive: 20.6 µM [inhibitor, single point]",
COc1ccc(N2CCN(C(c3ccccc3)c3sc4nc(C)nn4c3O)CC2)cc1 (stereo not drawn),,inconclusive: -32.5% [inhibitor]
CCOC(=O)[C@H]1[C@H]2COc3ccc(Cl)cc3[C@@H]2N2C(=O)c3cc(C)ccc3NC(=O)[C@@]12C,"inconclusive: 14.6 µM [inhibitor, partial curve]",
CC(C)NC(=O)C1CC(=O)N(C(C)c2ccccc2)C1 (stereo not drawn),inactive,
COc1cc(C(C(=O)NCc2ccccc2)N(C(=O)c2snc(C(N)=O)c2N)C2CCCC2)cc(OC)c1OC (stereo not drawn),inactive,
Cc1ccc(S(=O)(=O)N2CCCCC2)cc1C(=O)NCCc1ccccc1,"inconclusive: 18.4 µM [inhibitor, single point]",
O=C(COc1ccccc1F)NCC(c1ccc(F)cc1)N1CCOCC1 (stereo not drawn),inactive,
COc1ccc(N(CC(=O)Nc2nccs2)S(=O)(=O)c2c(C)nn(C)c2C)cc1,"inconclusive: 29.1 µM [inhibitor, single point]",

SMILES,Potency,"activity change, negative = growth inhibition"
Cc1ccc(NC(=O)CSCC#N)cc1Cl,"inconclusive: 29.1 µM [inhibitor, single point]",
Cc1cccc(C)c1NC(=O)C(=O)NCCCN1CCOCC1,"inconclusive: 20.6 µM [inhibitor, single point]",
O=C(Nc1ccccc1)c1ccc(NC(=O)c2cccs2)cc1,inactive,
CC(=O)c1cccc(NC(=O)C(C)OC(=O)/C=C/c2cccs2)c1 (stereo not drawn),"inconclusive: 9.2 µM [inhibitor, partial curve, poor fit]",
ClCC1=Nc2ccccc2Cc2ccccc21,"inconclusive: 32.6 µM [inhibitor, single point]",
CC(C)C(=O)N1CCN(c2ccccc2NC(=O)c2ccco2)CC1,"inconclusive: 16.4 µM [inhibitor, single point]",
CC(C)c1onc(C(=O)NCc2ccccc2)c1[N+](=O)[O-],active: 20.6 µM,
O=C(NCCCc1nc2ccccc2n1Cc1cccc(Cl)c1)c1ccco1,active: 23.1 µM,
COc1cccc(NC(=O)Nc2nnc(Cc3ccccc3F)s2)c1,active: 23.1 µM,
COC(=O)[C@]1(Cc2ccccc2)N[C@H](c2ccc(-c3cccc(Cl)c3)cc2)[C@@H]2C(=O)N(C)C(=O)[C@@H]21,"inconclusive: 18.4 µM [inhibitor, single point]",
COc1cccc(/C=c2/[nH]c(=O)/c(=C\c3cccc(OC)c3OC)[nH]c2=O)c1OC,"inconclusive: 20 µM [inhibitor, single point]",
Cc1nc(-c2cccc(NC(=O)Cc3ccccc3)c2)cs1,"inconclusive: 29.1 µM [inhibitor, single point]",
S=c1[nH]nc(COc2ccccc2)n1/N=C/c1ccc(Cl)c(Cl)c1,inactive,
CCc1cc(C)cc(OCCNC(=O)c2cncc(Br)c2)c1,"inconclusive: 29.1 µM [inhibitor, single point]",
O=c1[nH]c(-c2ccccc2)c(-c2ccccc2)nc1[N+](=O)[O-],inactive,
Nc1ncnc2c1ncn2C1O[C@H](CO)[C@@H](O)[C@@H]1O (stereo partly drawn),active: 0.206 µM,
CC1CC(Nc2ccccc2)c2ccccc2N1C(=O)c1ccccc1F (stereo not drawn),active: 1.03 µM,
COc1ccc(C(=O)N[C@H](C(=O)Nc2sccc2C(N)=O)C(C)C)cc1,"inconclusive: 0.82 µM [inhibitor, partial curve, poor fit]",
CCCCc1cc(=O)oc2cc(C)c3c(C)coc3c12,"inconclusive: 25.9 µM [inhibitor, single point]",
O=C(NCCS(=O)(=O)N1CCN(c2ccc(F)cc2)CC1)C12CC3CC(CC(C3)C1)C2,active: 16.4 µM,
COc1cccc(CNC(=O)C2CCN(c3nc4ccc(Cl)cc4[nH]3)CC2)c1,"inconclusive: 25.9 µM [inhibitor, single point]",
CCOC(=O)[C@]12CCCC=C1N(Cc1ccco1)C(=O)[C@H](CC(=O)NCC1CCCCC1)C2,"inconclusive: 29.1 µM [inhibitor, single point]",
CCN1CCN(C(C(=O)NC2CCCCC2)c2cc3ccccc3o2)CC1 (stereo not drawn),inactive,
FC(F)(F)c1nnc(-c2ccccc2)nc1Sc1ccc(Cl)cc1,active: 6.51 µM,
c1cc2c3c(cccc3c1)NC(c1ccc3c(c1)OCO3)N2,"inconclusive: 29.1 µM [inhibitor, single point]",

SMILES,Potency,"activity change, negative = growth inhibition"
CC(C)N1CCc2c(sc(NC(=O)Cc3ccccc3)c2C(N)=O)C1,inactive,
C=C1OC(CO)(n2cnc3c(N)ncnc32)C(O)C1O (stereo not drawn),"inconclusive: 35.5 µM [inhibitor, single point]",
Nc1nc(N)nc(-c2ccc(Cl)c(Cl)c2)n1,active: 11.6 µM,
Oc1ccc2c(c1)OCC1(O)Cc3cc(O)c(O)cc3C21 (stereo not drawn),active: 6.51 µM,
CC1CCN(C2=NC(=O)/C(=C/c3cccc(O)c3)S2)CC1,"inconclusive: 11.6 µM [inhibitor, partial curve]",
CSc1ncc(Cl)c(C(=O)Nc2ccc(S(=O)(=O)N3CCC(C)CC3)cc2)n1,active: 23.1 µM,
CCN1C(=O)c2cccc3c(NC(=O)c4ccc(S(=O)(=O)N5CCOCC5)cc4)ccc1c23,"inconclusive: 29.1 µM [inhibitor, single point]",
CC1CCN(S(=O)(=O)c2cccc(C(=O)NCc3cccs3)c2)CC1,"inconclusive: 23.1 µM [inhibitor, single point]",
O=C(c1cnn(-c2nccc(-c3ccccc3F)n2)c1C1CC1)N1CCN(CCO)CC1,inactive,
c1ccc(-c2ccc3c(n2)CCCO3)cc1,inactive,
Cn1nnnc1SCCNCc1ccccc1OCc1ccccc1F,"inconclusive: 23.1 µM [inhibitor, single point]",
CCCC(=O)Nc1cc(C(=O)O)ccc1S(=O)(=O)c1ccc(C)cc1,inactive,
Cc1nn(Cc2ccccc2)c(C)c1C(=O)NCCCN1CCCC1=O,inactive,
Cc1ccc(Cn2c(C(=O)Nc3cccc(Cl)c3)cc3sccc32)cc1,"inconclusive: 29.1 µM [inhibitor, single point]",
CCOC(=O)c1cccc(NC(=O)c2ccc3c(c2)nnn3C2CCCC2)c1,"inconclusive: 23.1 µM [inhibitor, single point]",
O=C(COc1ccccc1[N+](=O)[O-])N/N=C/c1ccc(OC(=O)c2ccco2)cc1,"inconclusive: 13 µM [inhibitor, partial curve, poor fit]",
CN(C(=O)CSc1nc(-c2ccccc2)cs1)C1CCS(=O)(=O)C1 (stereo not drawn),,inconclusive: -32.3% [inhibitor]
Cc1ccc(C2c3c(-c4ccccc4O)n[nH]c3C(=O)N2CCCO)cc1 (stereo not drawn),active: 29.1 µM,
CC(C)c1nc(SCc2ccccn2)c2c(=O)n(C)c(=O)n(C)c2n1,"inconclusive: 23.1 µM [inhibitor, single point]",
COC(=O)C1C(c2ccccc2)C(C(=O)OCc2ccco2)C1c1ccccc1 (stereo not drawn),"inconclusive: 29.1 µM [inhibitor, single point]",
O=C(NCCn1cc(SCc2ccc(F)cc2)c2ccccc21)c1c(F)cccc1F,"inconclusive: 25.9 µM [inhibitor, single point] and inconclusive: 20.6 µM [inhibitor, single point]",
COc1cccc(CN2CCC2(C)C(=O)Nc2cccc(Oc3ccccc3)c2)c1F (stereo not drawn),active: 7.31 µM,
CCOC(=O)c1ccccc1NC(=O)N1CCn2c(C)ccc2C1CC (stereo not drawn),"inconclusive: 20.6 µM [inhibitor, partial curve]",

# Reference: PubChem BioAssay AID686978 (National Center for Advancing Translational Sciences (NCATS), 2013)
